# Assay results: the supplement of paper PMC8728848
# This is one part of the list.
# B1: MGL (Homo sapiens), Q8IUN9 (protein)
# chain: MTRTYENFQYLENKVKVQGFKNGPLPLQSLLQRLCSGPCHLLLSLGLGLLLLVIICVVGFQNSKFQRDLVTLRTDFSNFTSNTVAEIQALTSQGSSLEETIASLKAEVEGFKQERQAGVSELQEHTTQKAHLGHCPHCPSVCVPVHSEMLLRVQQLVQDLKKLTCQVATLNNNASTEGTCCPVNWVEHQDSCYWFSHSGMSWAEAEKYCQLKNAHLVVINSREEQNFVQKYLGSAYTWMGLSDPEGAWKWVDGTDYATGFQNWKPGQPDDWQGHGLGGGEDCAHFHPDGRWNDDVCQRPYHWVCEAGLGQTSQESH
# Experiments:
# Assay in all cases: glycan array binding signal (z-score within array); higher = stronger binding
# Conditions in all cases: glycan notation: IUPAC condensed, linker removed
# [1] = target: Neu5Ac(a2-6)GlcNAc(b1-4)GlcNAc(b1-4)GlcNAc
# Summary of the method: (§1)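 Columns mapping to the same glycan were averaged after glycan names were converted to IUPAC-condensed notation. The data come from 3228 arrays in the Consortium for Functional Glycomics database, limited to those with an available protein sequence. Binding is reported as a within-array Z-score averaged across arrays of one protein sequence and across linkers.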
# [2] = target: Neu5Ac(a2-8)Neu5Ac
# Summary of the method: as §1
# [3] = target: Neu5Ac(a2-8)Neu5Ac(a2-3)Gal(b1-3)GalNAc(b1-4)[Neu5Ac(a2-3)]Gal(b1-4)Glc
# Summary of the method: as §1
# [4] = target: Neu5Ac(a2-8)Neu5Ac(a2-3)Gal(b1-3)GalNAc(b1-4)[Neu5Ac(a2-8)Neu5Ac(a2-3)]Gal(b1-4)Glc
# Summary of the method: as §1
# [5] = target: Neu5Ac(a2-8)Neu5Ac(a2-3)Gal(b1-4)Glc
# Summary of the method: as §1
# [6] = target: Neu5Ac(a2-8)Neu5Ac(a2-3)Gal(b1-4)GlcNAc
# Summary of the method: as §1
# [7] = target: Neu5Ac(a2-8)Neu5Ac(a2-3)[Gal(b1-3)GalNAc(b1-4)]Gal(b1-4)Glc
# Summary of the method: as §1
# [8] = target: Neu5Ac(a2-8)Neu5Ac(a2-3)[GalNAc(b1-4)]Gal(b1-4)Glc
# Summary of the method: as §1
# [9] = target: Neu5Ac(a2-8)Neu5Ac(a2-8)Neu5Ac
# Summary of the method: as §1
# [10] = target: Neu5Ac(a2-8)Neu5Ac(a2-8)Neu5Ac(a2-3)Gal(b1-4)Glc
# Summary of the method: as §1
# [11] = target: Neu5Ac(a2-8)Neu5Ac(a2-8)Neu5Ac(a2-3)[Gal(b1-3)GalNAc(b1-4)]Gal(b1-4)Glc
# Summary of the method: as §1
# [12] = target: Neu5Ac(a2-8)Neu5Ac(a2-8)Neu5Ac(a2-3)[GalNAc(b1-4)]Gal(b1-4)Glc
# Summary of the method: as §1
# [13] = target: Neu5Ac(a2-8)Neu5Ac(a2-8)Neu5Ac(a2-8)Neu5Ac(a2-3)[GalNAc(b1-4)]Gal(b1-4)Glc
# Summary of the method: as §1
# [14] = target: Neu5Ac(a2-8)Neu5Gc(a2-3)Gal(b1-4)GlcNAc
# Summary of the method: as §1
# [15] = target: Neu5Ac(b2-6)Gal(b1-4)GlcNAc
# Summary of the method: as §1
# [16] = target: Neu5Ac(b2-6)GalNAc
# Summary of the method: as §1
# [17] = target: Neu5Ac9Ac(a2-3)Gal(b1-3)GlcNAc
# Summary of the method: as §1
# [18] = target: Neu5Ac9Ac(a2-3)Gal(b1-4)GlcNAc
# Summary of the method: as §1
# [19] = target: Neu5Ac9Ac(a2-6)Gal(b1-4)GlcNAc
# Summary of the method: as §1
# [20] = target: Neu5Gc(a2-3)Gal(b1-3)GlcNAc
# Summary of the method: as §1
# [21] = target: Neu5Gc(a2-3)Gal(b1-3)[Fuc(a1-4)]GlcNAc
# Summary of the method: as §1
# [22] = target: Neu5Gc(a2-3)Gal(b1-4)Glc
# Summary of the method: as §1
# [23] = target: Neu5Gc(a2-3)Gal(b1-4)GlcNAc
# Summary of the method: as §1
# [24] = target: Neu5Gc(a2-3)Gal(b1-4)GlcNAc(b1-3)Gal(b1-4)GlcNAc(b1-2)Man(a1-3)[Neu5Gc(a2-3)Gal(b1-4)GlcNAc(b1-3)Gal(b1-4)GlcNAc(b1-2)Man(a1-6)]Man(b1-4)GlcNAc(b1-4)GlcNAc
# Summary of the method: as §1
# [25] = target: Neu5Gc(a2-3)Gal(b1-4)[Fuc(a1-3)]GlcNAc
# Summary of the method: as §1
# [26] = target: Neu5Gc(a2-6)Gal(b1-4)GlcNAc
# Summary of the method: as §1
# [27] = target: Neu5Gc(a2-6)GalNAc
# Summary of the method: as §1
# [28] = target: Neu5Gc(a2-8)Neu5Ac(a2-3)Gal(b1-4)GlcNAc
# Summary of the method: as §1
# [29] = target: Neu5Gc(a2-8)Neu5Gc(a2-3)Gal(b1-4)GlcNAc
# Summary of the method: as §1
# [30] = target: Neu5Gc(a2-8)Neu5Gc(a2-3)Gal(b1-4)GlcNAc(b1-3)Gal(b1-4)GlcNAc
# Summary of the method: as §1
# [31] = target: Neu5Gc(a2-8)Neu5Gc(a2-6)Gal(b1-4)GlcNAc
# Summary of the method: as §1
# [32] = target: Neu5Gc(b2-6)Gal(b1-4)GlcNAc
# Summary of the method: as §1
binder,measurement,setting,value
B1,glycan array binding signal (z-score),[1],-0.247
same,glycan array binding signal (z-score),[2],-0.238
same,glycan array binding signal (z-score),[3],-0.236
same,glycan array binding signal (z-score),[4],-0.243
same,glycan array binding signal (z-score),[5],-0.25
same,glycan array binding signal (z-score),[6],-0.259
same,glycan array binding signal (z-score),[7],0.408
same,glycan array binding signal (z-score),[8],2.36
same,glycan array binding signal (z-score),[9],-0.244
same,glycan array binding signal (z-score),[10],-0.246
same,glycan array binding signal (z-score),[11],-0.237
same,glycan array binding signal (z-score),[12],2.59
same,glycan array binding signal (z-score),[13],3.54
same,glycan array binding signal (z-score),[14],-0.248
same,glycan array binding signal (z-score),[15],-0.244
same,glycan array binding signal (z-score),[16],-0.159
same,glycan array binding signal (z-score),[17],-0.248
same,glycan array binding signal (z-score),[18],-0.252
same,glycan array binding signal (z-score),[19],-0.239
same,glycan array binding signal (z-score),[20],-0.248
same,glycan array binding signal (z-score),[21],-0.244
same,glycan array binding signal (z-score),[22],-0.238
same,glycan array binding signal (z-score),[23],-0.249
same,glycan array binding signal (z-score),[24],-0.241
same,glycan array binding signal (z-score),[25],0.195
same,glycan array binding signal (z-score),[26],-0.242
same,glycan array binding signal (z-score),[27],0.748
same,glycan array binding signal (z-score),[28],-0.237
same,glycan array binding signal (z-score),[29],-0.24
same,glycan array binding signal (z-score),[30],-0.245
same,glycan array binding signal (z-score),[31],-0.246
same,glycan array binding signal (z-score),[32],-0.235
